Hit rate of the full screen: of about 39,000 compounds, about 220 (0.56%) showed activity. Some of the results follow.
The compounds below were run on Escherichia coli K-12 BW25113 (assay: relative growth (OD600 normalised to plate interquartile mean) (fraction); higher = less growth inhibition, active = 0.2 or less). Details: 50 µM; LB; incubation time: overnight (16-24 h).
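Also: static incubation at 37 °C against the wild-type strain, values averaged over two biological replicates.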

SMILES	relative growth
C[C@H](CO)N1C[C@H](C)[C@H](CN(C)CC2CC2)OCCCC[C@H](C)Oc2ccc(NC(=O)c3ccccc3)cc2C1=O	inactive: 0.981
C[C@@H]1CN([C@@H](C)CO)C(=O)c2cc(NC(=O)Nc3cccc4ccccc34)ccc2O[C@H]1CN(C)Cc1ccc(C(=O)Nc2ccccc2N)cc1	inactive: 1
O=C1NC(=O)[C@H]2[C@@H]1[C@H](c1ccccc1)N1[C@@H]3C(=O)NC(=O)[C@@H]3[C@H](c3ccccc3)N21	inactive: 0.993
C[C@@H]1CCCCO[C@H](CN(C)Cc2ccc(C(F)(F)F)cc2)[C@@H](C)CN([C@@H](C)CO)C(=O)c2cc(NC(=O)C3CCCCC3)ccc2O1	inactive: 0.993
C[C@@H]1CN([C@@H](C)CO)C(=O)c2cc(C#CC3(O)CCCC3)cnc2O[C@@H]1CN(C)C(=O)Cc1ccncc1	inactive: 1.05
CCOC(=O)C1=NNC[C@@H]1C(=O)OCC	inactive: 1
COc1ccc(NC(=O)Nc2ccc3c(c2)C(=O)N([C@H](C)CO)C[C@H](C)[C@H](CN(C)S(=O)(=O)c2c(C)noc2C)OCCCC[C@@H](C)O3)cc1	inactive: 1.04
C[C@@H]1CN([C@@H](C)CO)C(=O)c2c(c3ccccc3n2C)-c2ccccc2CO[C@@H]1CN(C)S(=O)(=O)c1cn(C)cn1	inactive: 1.02
COc1ccc(-c2cc(=O)c3c(O)cc(O)cc3o2)cc1	inactive: 1.11
CC(C)NC(=O)Nc1ccc2c(c1)C(=O)N([C@@H](C)CO)C[C@H](C)[C@@H](CN(C)C(=O)Nc1ccccc1)OCCCC[C@@H](C)O2	inactive: 0.992
COc1ccc(NC(=O)Nc2ccc3c(c2)[C@@H]2C[C@H](CC(=O)N4CCN(C)CC4)O[C@H](CO)[C@@H]2O3)cc1	inactive: 0.996
C[C@@H]1CN([C@@H](C)CO)C(=O)c2cc(NC(=O)C3CCCCC3)ccc2O[C@@H](C)CCCCO[C@@H]1CN(C)Cc1ccccc1	inactive: 1
COC(=O)[C@H](Cc1ccccc1)N1CC2=C[C@@H](C3CC3)n3c(=O)n(C)c(=O)n3[C@H]2[C@@H]1[C@@H](O)Cc1ccccc1	inactive: 1
C[C@H]1CN([C@@H](C)CO)C(=O)c2cc(NC(=O)CCCN(C)C)ccc2O[C@@H]1CN(C)C(=O)Nc1ccc(F)cc1	inactive: 1
Cc1noc(C)c1S(=O)(=O)Nc1ccc2c(c1)C(=O)N([C@H](C)CO)C[C@H](C)[C@@H](CN(C)C(=O)NC(C)C)O2	inactive: 1.02
OCc1cnccn1	inactive: 0.996
O=c1c(O)cccc2cc(O)c(O)c(O)c12	inactive: 0.903
CN1C(=O)c2cc(NC(=O)c3cnccn3)ccc2OC[C@H]2O[C@@H](CC(=O)N[C@@H]3CCN(Cc4ccccc4)C3)CC[C@@H]21	inactive: 0.995
COC[C@@H](O)CSc1[nH]c(C)nc1[N+](=O)[O-]	inactive: 1.01
CC(C)NC(=O)Nc1ccc2c(c1)CC(=O)N([C@@H](C)CO)C[C@H](C)[C@@H](CN(C)Cc1ccc3c(c1)OCO3)O2	inactive: 1
C[C@H](CO)N1C[C@H](C)[C@H](CN(C)C(=O)Nc2cccc3ccccc23)Oc2c(NS(=O)(=O)c3cccs3)cccc2C1=O	inactive: 0.996

SMILES	relative growth
Cc1noc(C)c1NC(=O)Nc1ccc2c(c1)C(=O)N([C@@H](C)CO)C[C@H](C)[C@@H](CN(C)CC1CC1)OCCCC[C@H](C)O2	inactive: 1.01
Cc1ccc(S(=O)(=O)N(C)C[C@@H]2Oc3ccc(NC(=O)c4ccncc4)cc3C(=O)N([C@@H](C)CO)C[C@@H]2C)cc1	inactive: 1
O=C(C[C@H]1CC[C@H]2[C@@H](COC[C@@H](O)CN2S(=O)(=O)c2ccccc2Cl)O1)NCc1ccccc1Cl	inactive: 1.02
COc1ccc(S(=O)(=O)Nc2ccc3c(c2)[C@H]2C[C@@H](CC(=O)NCC4CC4)O[C@@H](CO)[C@H]2O3)cc1	inactive: 0.974
Cc1ccc(S(=O)(=O)NC(=O)NN2CC3CCCC3C2)cc1 (configuration not stated)	inactive: 1.09
CO[C@H]1O[C@H](COC(=O)NCCCCCC(=O)NO)[C@@H](OC(=O)c2ccccc2)[C@H](OC(=O)Nc2ccccc2-c2ccccc2)[C@@H]1OC(=O)Nc1ccccc1-c1ccccc1	inactive: 1
CN1CCN(C(=O)C[C@H]2CC[C@H](NC(=O)Cc3ccccn3)[C@H](CO)O2)CC1	inactive: 1.05
COc1ccc(CN(C)C[C@@H]2OCCCC[C@H](C)Oc3ccc(NS(=O)(=O)c4cccs4)cc3C(=O)N([C@H](C)CO)C[C@H]2C)cc1	inactive: 1.01
C=CCC[C@@H](Cc1ccc(F)cc1)C(=O)OC[C@@H](Cc1ccccc1)NC(=O)[C@H](CC=C)CC(=O)N(CCO)Cc1ccccc1	inactive: 1.12
C[C@H](CO)N1C[C@H](C)[C@H](CN(C)C(=O)NC2CCCCC2)Oc2ccc(NC(=O)Cn3cnnn3)cc2C1=O	inactive: 1.02
O=C(C1=C[C@H](c2coc3ccccc3c2=O)C[C@H](OCc2ccc(CO)cc2)O1)N1CCCCCCC1	inactive: 1.02
Cc1noc(C)c1NC(=O)N(C)C[C@H]1Oc2c(NS(=O)(=O)c3ccccc3)cccc2C(=O)N([C@H](C)CO)C[C@H]1C	inactive: 1.02
C[C@@H]1CN([C@H](C)CO)C(=O)Cc2cc(NC(=O)Nc3ccc4c(c3)OCO4)ccc2O[C@@H]1CN(C)C(=O)Nc1cccc2ccccc12	inactive: 1.04
C[C@H](CO)N1C[C@H](C)[C@H](CN(C)CC2CCCCC2)OCCCC[C@H](C)Oc2ccc(NS(=O)(=O)c3cccs3)cc2C1=O	inactive: 1.01
Cc1ccc(S(=O)(=O)N[C@H]2C=C[C@@H](CC(=O)NCCN3CCCCC3)O[C@H]2CO)cc1	inactive: 1.02
O=C(O)c1ccco1	inactive: 0.988
CCOC(=O)N(C)C[C@H]1OCc2cn(nn2)CCCC(=O)N([C@@H](C)CO)C[C@@H]1C	inactive: 0.988
CCC(=O)N1CCC[C@H](C(=O)O)C1	inactive: 0.987
C[C@@H]1CN([C@@H](C)CO)S(=O)(=O)c2ccc(C#C[C@@H](C)O)cc2O[C@H]1CN(C)C(=O)C1CCCCC1	inactive: 1.01
C[C@@H]1CN([C@@H](C)CO)C(=O)c2cccc(NC(=O)c3cnccn3)c2O[C@H]1CN(C)Cc1ccc2c(c1)OCO2	inactive: 0.998
C[C@@H]1CN([C@H](C)CO)C(=O)c2cccc(NS(=O)(=O)c3cccs3)c2O[C@@H]1CN(C)Cc1ccc(Cl)c(Cl)c1	inactive: 0.999

SMILES	relative growth
O=C(O)/C=C\C(=O)NCc1ccccc1	inactive: 0.96
C/C=C/c1cccc(-c2nc(C(=O)NCc3ccc(OC)cc3)cc3c2[C@H](CCO)N([S@@](=O)C(C)(C)C)C3)c1	inactive: 1.02
Cn1c(=O)c2c(ncn2C[C@@H](O)CO)n(C)c1=O	inactive: 1.02
CO[C@@H]1CN(C)C(=O)c2cc(NC(=O)NC(C)C)ccc2OC[C@H](C)N(Cc2ccc(-c3ccccn3)cc2)C[C@@H]1C	inactive: 0.979
Cc1ccc(S(=O)(=O)N(C)C[C@@H]2Oc3ccc(NS(=O)(=O)c4cn(C)cn4)cc3CC(=O)N([C@H](C)CO)C[C@H]2C)cc1	inactive: 1.02
Cc1ccc(S(=O)(=O)N(C)C[C@@H]2Oc3ccc(NS(=O)(=O)c4c(C)noc4C)cc3CC(=O)N([C@H](C)CO)C[C@H]2C)cc1	inactive: 0.983
C[C@H]1CN([C@@H](C)CO)C(=O)Cc2cc(NC(=O)Nc3cccc4ccccc34)ccc2O[C@@H]1CN(C)C(=O)Nc1cccc2ccccc12	inactive: 0.984
C[C@@H]1CN([C@H](C)CO)C(=O)c2cc(NC(=O)Nc3ccc4c(c3)OCO4)ccc2O[C@@H]1CN(C)C(=O)Nc1cccc2ccccc12	inactive: 1.02
COc1ccc(S(=O)(=O)Nc2cccc3c2O[C@H](CN(C)CC2CC2)[C@@H](C)CN([C@H](C)CO)C3=O)cc1	inactive: 0.985
C[C@H](CO)N1C[C@H](C)[C@H](CN(C)S(C)(=O)=O)Oc2ccc(NS(=O)(=O)c3ccccc3)cc2CC1=O	inactive: 1.02
C[C@H](CO)N1C[C@H](C)[C@@H](CN(C)C(=O)c2cnccn2)Oc2ncc(C#Cc3ccccn3)cc2C1=O	inactive: 1
C[C@@H]1CCCCO[C@@H](CN(C)C(=O)CCCN(C)C)[C@@H](C)CN([C@@H](C)CO)C(=O)c2cc(NC(=O)Nc3ccc(C(F)(F)F)cc3)ccc2O1	inactive: 0.951
COc1cccc(-c2ccc3c(c2)O[C@@H](CN(C)Cc2cncnc2)[C@@H](C)CN([C@H](C)CO)S3(=O)=O)c1	inactive: 1
CCC(=O)N[C@H]1C=C[C@H](CC(=O)OC)O[C@H]1CO	inactive: 0.995
C[C@@H]1CCCCO[C@H](CN(C)Cc2ccc(C(=O)O)cc2)[C@@H](C)CN([C@H](C)CO)C(=O)c2cc(NC(=O)Nc3ccc(C(F)(F)F)cc3)ccc2O1	inactive: 0.96
C[C@H]1CCCCO[C@H](CN(C)CC2CCCCC2)[C@@H](C)CN([C@@H](C)CO)C(=O)c2cc(NS(=O)(=O)c3ccccc3)ccc2O1	inactive: 0.999
C[C@H](CO)N1C[C@H](C)[C@@H](CN(C)C(=O)c2cnccn2)Oc2cc(Br)ccc2S1(=O)=O	inactive: 0.986
CCC1OC(=O)CC(O)C(C)C(OC2OC(C)C(OC3CC(C)(O)C(O)C(C)O3)C(N(C)C)C2O)C(CC=O)CC(C)C(=O)C=CC(C)=CC1COC1OC(C)C(O)C(OC)C1OC.O=C(O)C(O)C(O)C(=O)O (configuration not stated)	inactive: 1.09
COCCn1cc2c(n1)[C@H](CNC(=O)CS(C)(=O)=O)OCC2	inactive: 0.998
COc1ccccc1-c1ccc2c(c1)O[C@@H](CN(C)C(=O)c1ccncc1)[C@H](C)CN([C@@H](C)CO)S2(=O)=O	inactive: 1.03
